# ± gives the standard deviation of the averaged measurements. The full ranking holds about 4,000 sequences; the median of “arbitrary fluorescence units” is about 830, and the highest 2% start at about 6,500. Most of the strongest results are missing from this list.
# Target: RUNX1 (UniProt Q01196)
# Assay: RUNX1 binding intensity (PBM fluorescence), RUNX1 alone (arbitrary fluorescence units); higher = stronger binding
# Conditions: RUNX1 concentration 2 nM; ETS1 concentration 0 nM
# Experimental: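 gcPBM on 36-bp genomic-derived probes (partner site mutated) containing one RUNX1 site and no ETS1 site. Recombinant human RUNX1 (2 nM) was incubated alone or with ETS1 (25 nM) and detected by anti-RUNX1 antibody fluorescence. Values are medians over 4 replicate spots (not normalised). The probes sit in constant array flanks that are not printed.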
# 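Further: Full-length recombinant human RUNX1 bound to double-stranded DNA microarray spots, detected with an Alexa488-labelled secondary antibody after the anti-RUNX1 primary, read as scanned spot fluorescence.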
# Chain of UniProt Q01196 (Q01196 whole entry): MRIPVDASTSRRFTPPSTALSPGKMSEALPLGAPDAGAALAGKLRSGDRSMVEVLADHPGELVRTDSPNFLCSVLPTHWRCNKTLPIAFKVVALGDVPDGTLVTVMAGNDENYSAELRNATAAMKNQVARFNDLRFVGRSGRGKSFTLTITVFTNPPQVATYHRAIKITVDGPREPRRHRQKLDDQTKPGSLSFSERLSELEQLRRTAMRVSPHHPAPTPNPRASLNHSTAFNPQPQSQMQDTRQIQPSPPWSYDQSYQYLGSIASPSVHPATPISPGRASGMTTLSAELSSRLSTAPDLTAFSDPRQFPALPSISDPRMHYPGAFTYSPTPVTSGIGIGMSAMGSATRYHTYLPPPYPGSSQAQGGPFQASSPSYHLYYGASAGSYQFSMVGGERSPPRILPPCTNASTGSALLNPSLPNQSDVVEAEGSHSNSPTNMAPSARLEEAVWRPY
row,Sequence,RUNX1 binding intensity
1,GTAGCCGGGTGTTACGGAGCGCTGCGGGCAAAGCAG,671
2,CCCTTCGCTTGCGCTCCGCGTTCCCACAATGCAGTG,1030
3,TGCAGCCCCCACAGCCATCATCTTTCTGAGTCAACA,846
4,TGGGCGCGCTGCGGGAGCTGGGCTTCACGTACATGA,653
5,CCACCGCCCCGCAGCTCACACCGTATGTGCGACAGA,898
6,GAGGTGCCCGTCAACCACCTGATCCGTCAGGGGCCC,692
7,GGTGAGCAGCCGATAGCCTGGAGCAGCACCCACACC,715
8,GCAACCGCACTCCGAAAGCTCTGGGCCTGAAGAGTC,943
9,GGCCTCCTTCGGAGGCTCCCCTCCACCCACAAGCAG,736
10,ATAGTCACCGTTCCAGCCCTCCTCCACCGCACTTCT,1300
11,GCCCGCGGCTCCGTAAGCGGCTGCGGCCCCGACCGG,684
12,CATTATTAACCTTCAGGCAAATCCCCACAGCCGCCA,997
13,TAGATGCAGAGAACCACAAACATTTACGTACGGCTA,1050
14,AGGGTTTGTGGGACCTGGTGACTCACGGGATCTGGG,703
15,TCATTGAGGTTTCTGAAGCACACAGCAAGTCAGAAA,797
16,TCGCCCACCTCCCCACCTCTCAAAAGACCACAGGCA,1400
17,TGCCTGGAATACTGAAGGCAGGTGGTTGGCTCTAGT,771
18,ACCTGTAGGTGGAAGTCTGTGGCTTTATTTACACAG,788 ± 52
19,TCCCGGGGAGGAGGTGGCGAGAATGCGGGGGTGGGC,831
20,GCTCTGCATCTTGTGGGCTAAGGAATCAGGTCCCAC,828
21,CTGTGGGTTCGGCAGTAAACTCTGACCTCCTATTTA,892
22,GCTTAAGGATGGGACAACTAGAGTGGGTTACTCTGC,730
23,TGCCTCTGAACCGCGCTCTCGCGAGTTGCCGTAGCC,879
24,TCACAAACCCACACGGCCCAGCCCCCAGTTCCATTC,1390
25,AGACCCGGACCCGAACCTTGGCGCGGTGACGCTAGT,699

row,Sequence,RUNX1 binding intensity
1,TGAGCGCCTGAACAGCTCTCCCAGCAACCACCTCTC,840
2,ACGACTGGAACGTGGACAACCAGTGGTTGTTCCTCC,816
3,CTCCCTAGCCCGCGGTGAGCGGGGGAATCGGCACTC,875
4,GTTCACGTTCAGCTCTTAGTGCGCGGTGAGTTCCCC,700
5,AGAGGCAATCACACTCTCACTGGGGTTCCCGCAGCT,709
6,CATTGCCTGATCTGACCTCTGGGGAGGCCACAGAGC,869
7,TGAGCCTTGGAATGGAATGATTCACCACAATACTGT,733
8,GGCCTGCGGTCCGGGGCCGCTCGGCAGGCGCAAGCC,1020
9,CAGAGAAACATGAAGAACAGTGGTTTCAACTGAAAT,755
10,ACACCACTAACAACCACGGCCGCTTGCTGAACCTGT,970 ± 38
11,CGAAGTCAGCGCGGTCAGAGAAAGGAGGTGATATAG,756
12,GGGCTTGCGGATCTGGCCGCCGATTCCCGTCCAGGG,795
13,CGGCGGTGGCGGTAGCTCCACTGCCGCTCCGATCGC,710
14,GCTCGGCAATACCAATATTGGGCTGTGGTATTTGAA,863
15,CTGTGAGGCGGCAGTGGCGGGCTCTGTGGGCGCAAG,657
16,TTAGTAGGAACCACAAGGCTCTCACAGCATAAACTG,897
17,GCAGCGTCTCCATCCACGGCAGCGGCAGCGGTCGCT,813
18,TGGTGTGAGGTGTGGCTTTGTCTTCATGAGCGGTGT,760
19,CCGCCCACAAGGAGGACTGAGACGCTTTGCCTGATA,872
20,GGCCTCAGAAAACTTAACAGTTGTGGCAGAAGGTGA,662
21,GCTGAGGCCGTAAGAGGGTGGGGCCGCGGTGGCTAG,662
22,ACTGTGGTTTATGAAAGAGCTTTTAGGAGACATTTA,1340
23,TGGTCGCGGTTTGGAACTGCGCGGGAGGTGGGTGGT,2230
24,CACCCCGCCTCTGCGGGACCACTTCAGGCGCCTTCT,876
25,GCCCCAGCAAGAGCGCTCCCGCGAACTGCGGCGGTG,814

row,Sequence,RUNX1 binding intensity
1,GTTTTGTGGCTTTTTAAGCATGACATACAGCATATT,1880
2,TACCGGCGGTAATATAGTAAGGGCGGCAGTTCTCCT,844
3,AGCTGCGGTAGGGGGCAGAACCGGGAATCGGGTGTT,925
4,TAAGTGAATTTGCTGCCCGCCTCCGCCCACAGCGTA,782
5,TTTCGAGAAAACTGGAAGTGCGTGGTCACGCCCCGC,713
6,AAAATTAAAGCAGGCAGTAATCAACCACATCAAATG,844
7,GGCTTCTTATTGTGGCTTACACTTGCTCAGTAGATG,914
8,CTCGGCGCGACGGCTATTCCCGTGACCGCCGGGTTC,875
9,CACCTCCTCCTCGGGGGCCTCAGAAAACCACAGGGC,1030
10,CTGCAGATGGAGCCTGCTCCTGCAAACCCACTGCTG,682
11,GAGGTGCTGCGGGCCAGCCAGCTGTCATCGTGTCTG,727
12,CTCGTGGGTGCCGTAAGTGGAGGCGGTTGGTGGGGT,755
13,AGCAAGATAACCGCTGATCAGGAGCAGCAAGAGGCT,758
14,TGCATGTGGGAGATAAGCAGAGGATCAGGCTGGGGT,695
15,TGGAGGTGGTTACACACAGCTGTCTCCGTGAGGGTG,768
16,GTGCTCCCTGCTCGCACTGACTCATCCCGCAGCTGA,791
17,AGGCAAACTACAGAAAGATCCTGCCCGCAACTTGGT,781
18,GGTGCGGCTGTGCGGGCGGGGCCGGGAGTGTGGGGA,864
19,CAGGGGGCTGAACGTAAAACGCCTTGTGGCCGACGC,732
20,GATTCCTGAACCGCGGGGAAGGCAGTCCCTGTGAGG,828
21,ACAACCCGCTCTGTGGCGGGGCTTCAGGTCGGGAGG,796
22,GCTGCTAGGTGCCACCACAGGAGGAATCAAAAATAT,771
23,CGGGACACATGAAGCCGTTGTGGGGCCCCGGGGCCA,702
24,TTGTGGACGCGGTTTTGGGGGCGGGTATTCGGGCCT,1050
25,AGGTTCCAAACCTCAACCTGCAGCCGTAAGGGGGAC,878

row,Sequence,RUNX1 binding intensity
1,AGAAGGCGCCTGAAGTGGTCCCGCAGAGGCGGGGTG,797
2,GGTGTCTGCGGCAGCGCCTCAGAGTGGTTCCAGTCG,734
3,CCTCCAGCAAGCGATAAGTGACTGTGGTGGAGAGAG,752
4,AAGGGCCAGCAAGGGTGGAGTCTTTGCGGGGTGAGA,698
5,AGGACGCCCTCCTGCCGCAGACTTCCAGCGCAAGCT,811
6,TCGCCCGCCGCTTCATGTCGCGGCGCCGCAGAGGCC,781
7,CTGTGGTTTCGGTGGCTGTGACGTCGGGAGGTAAGT,837
8,CTCTGCGGCAGCAAGCCCCACCCCGAAAGTCGGCTG,1080
9,AGGTTGTGGTCGGTGACCTCCCAGTTCAGGCAGTCC,1220
10,CAGTTCCTTCGTCAGGTTCCTGCACTTGGCCGCAGC,905
11,CAAACAGGTTCCAGCTGGACTACAGCGCCCACAATG,789
12,CGTACGCGCACTTTCGGTCTTTGTGGCTTGCAGCTC,965
13,GCGAGCACTTTCGGTGTGTGAGCCTGCGGTTGCTAC,908
14,CTCTCCAGACCGCGCATTTTGGGTCTCGGAGGAGGT,735
15,GGCTGCGACTTTCGGACTGCTCCTGGCCGCAGGGGG,830 ± 48
16,ACAAAAAAACCACACACCCAACGGCAACCATAGAGA,2030
17,GGGGGCAGGGAGCAGTGCAGCTCCTTAACCCACTTC,724
18,CGCCGTAGGACGAAGCCGCGGCCGCAACGCTCCTGG,678
19,TCAACAGCAGTAACCACAAGTCTTTCATGTCCCAGA,2670
20,GGGCCCCTGACGGATCAGGTGGTTGACGGGCACCTC,686
21,TGCAGCTTCGTCCCGCTGCTCCGCCCAGCGGTTTCT,899
22,GCCAGCAAGCCAAGGTCGCGCCCTCCACCGCAGGTC,746
23,AACACCCGATTCCCGGTTCTGCCCCCTACCGCAGCT,1130
24,GTGTTTACCACATGCGGGCCCTCAGCAAGTGCATCA,985
25,GCAAAGTTGTGGGAGCCCTACTGCCTGCGGAGCCCC,731

row,Sequence,RUNX1 binding intensity
1,AGCAACCACGCACGACTCTGCTCCGTTCTGGTCCGA,805
2,GGATTCAGGTTAGCACGTCGCGTTCTGCCGCAGCAG,716
3,TAAGAAGCTCCAGCCGCAGGCACGGAGATAAACAGC,722
4,CTCTGTCAGGCAAATACACTTGGATGTGGTGACAGA,671
5,GCCGTAGCTGAAGAGTGTTCGTGGTCATGTGACGCC,695
6,GCGGAGGGAAGCTGAAATACTTGCGGTGGGGGCGAC,919
7,ACTCACCTCCGTTTAGCTTATCAACCACCAAGAGAC,1350
8,CTTCACTATGCATCGTGTACTGCAACCACACCAAAC,840
9,TTTGAGGTTCATGCTGTACTCAGAACACCCTGTTCT,804
10,CAAATACAGTGTGGTTTCACAGTAGGAGGTGGTGTT,1070
11,GCTCGCGGTGCCTCTGGGTCAGGTGAGACGGAGGTG,755
12,TCTGTCACCACATCCAAGTGTATTTGCCTGACAGAG,900
13,CCTGTGGGCTGGGAGGCCAGGTCCTTTGCTGCCCAG,706
14,GCAGGGCCTGCGGCGCTCGCGGCAGTGCCACGGTGC,685
15,TAAGACCGCTGTAGATTGTTATGTCTGGAATCCGCT,754 ± 48
16,GCACCGTGGCACTGCCGCGAGCGCCGCAGGCCCTGC,739
17,TTGCGGGTTTTATAGCTTAACTTTTGCTTTCTGTGT,976
18,GGCACCCCCGCATTTCTTCGAAGAGGCAATAAATAC,846
19,CTCCACCACAGGGCTGGGCTGCCAGATCCCATTCAT,942
20,GCTGTCCGTTCCCGAGATGTTAATGCGGGATCTTGC,812
21,ATTTGCTGCGACCCGCAGGCGCTATCAGCTGCCGGG,658
22,GGCCTGCGGGAGGGCCCGCCTTGGCTGCTCCCGCTC,731
23,CCATGTTTCCCGCAGGCAGTCGCGTGGGAATTGACG,806
24,AGAGGATTGTGGGCTCACAAGCCAACATGCTGACAG,695
25,CTCCGCCAGCGCCCGCAGGACCCGTATGAGAGCGCA,838
